From PMC12040169 (PLOS Biology, 2025) come the findings set out here.

This is one part of the list.

This assay concerns T1, C. trachomatis L2/434/Bu expressing GFP (CTL2-GFP).
T1 construct: L2/434/Bu GFP intracellular growth in HeLa cells
Set-up: species or system HeLa; C. trachomatis total inclusion area by high-content imaging, normalised to DMSO. The following applies: total inclusion area; 28.5 h, 10 µM; inhibitor. In outline:
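Bulk GFP and resorufin signals were read first. Wells were then fixed, stained with Hoechst and imaged to detect GFP inclusions and host nuclei. MICs followed the previously described calculation.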
With `CCc1nnc(N/N=C/c2ccc(OCc3ccc(F)cc3Cl)c(OC)c2)n1N` [CBK278173C], the “% of control remaining” value is 98.3644.

Consider `CCCn1cnc2cc(NC(=O)Cn3cc(C(=O)NC4CCCCC4)ccc3=O)ccc21` [CBK286098], for which the “% of control remaining” value is recorded as 97.4929.

As to `Cc1c(C(=O)N(C)Cc2cccn2C)[nH]c2ccccc12` [CBK283270], the “% of control remaining” value is 84.5644. The figure for `CN(C)c1ccc(-c2ccnc3nc(N)ccc23)cc1` [CBK067640] is 76.414. On to `Cc1sc2[nH]c(CCC(=O)N3CCCC(C)CC3)nc(=O)c2c1C` (stereo not drawn) [CBK305807], for which the “% of control remaining” value was found to be 38.7735. In the case of `COc1ccc(C(=O)C2=C(O)C(=O)N(Cc3cccnc3)C2c2ccc(OC)cc2OC)c(C)c1` (stereo not drawn) [CBK264928], the “% of control remaining” value is on record as 104.897. With `COc1ccc2[nH]cc(CCNC(=O)[C@H](CC(C)C)NC(C)=O)c2c1` [CBK116210], the “% of control remaining” value came out at 113.808. `CCOC(=O)C1CCN(C(=O)c2cccnc2NCc2ccc3c(c2)OCO3)CC1` [CBK160106]: the “% of control remaining” value was 64.2021.

For `CSc1nsc(SCC(=O)c2ccc3c(c2)OCCO3)n1` [CBK268904], the “% of control remaining” value amounted to 103.602. As for `CC(=O)Nc1ccccc1/C=C/c1ccc2c(C)cc(C)c(O)c2n1` [CBK261937], the “% of control remaining” value worked out at 66.5026. On to `O=C(N[C@@H](Cn1cc(F)c(=O)[nH]c1=O)C(=O)O)C1CCCCC1` [CBK289661], for which the “% of control remaining” value came out at 101.837. Regarding `COc1ccc(CC(=O)N2CCN(C(C)c3nc4ccccc4s3)CC2)cc1F` (stereo not drawn) [CBK297733], the “% of control remaining” value worked out at 90.0355. As for `COC(=O)c1ccc(N2CCN(C)CC2)c([N+](=O)[O-])c1` [CBK264341], the “% of control remaining” value was determined as 108.452. On to `CN1CCC(COC(=O)Nc2cccnc2)CC1` [CBK138232], for which the “% of control remaining” value was determined as 69.7719.

Regarding `Cc1ccc(S(=O)(=O)Nc2nnc(C(C)C)s2)cc1` [CBK045528], the “% of control remaining” value is on record as 66.3932. On to `CC(C)(C)c1ccccc1NC(=O)N(CCN)Cc1cc(F)cc(F)c1` [CBK046263C], for which the “% of control remaining” value is listed as 81.0437. Consider `CN(CC(=O)Nc1cc2ccccc2c(N2CCNCC2)n1)C(=O)c1ccccc1` [CBK028421T], for which the “% of control remaining” value came to 103.905. The same measure for `CC[C@H](Cn1c(=O)oc2ccccc21)NC(=O)Cc1cccs1` [CBK284537]: 101.207. Regarding `COC(=O)[C@H]1CN(C(=O)c2cn(C)nc2C)C[C@@H]1c1ccccc1F` [CBK283511], the “% of control remaining” value is recorded as 82.357. The figure for `Cn1cc(-c2nccnc2OC2CCCCC2)cn1` [CBK107072] is 123.939. With `Cc1cc(OCC(C)C)ccc1C(=O)C1=C(O)C(=O)N(Cc2cccnc2)C1c1cccnc1` (stereo not drawn) [CBK264883], the “% of control remaining” value amounted to 106.434. The figure for `O=C(c1ccccn1)N1C2CCC1CC(O)(c1ccco1)C2` (stereo not drawn) [CBK284034] is 84.5045. With `COc1ccc(NC(=O)CC2NC(=O)NC2=O)cc1` (stereo not drawn) [CBK267279], the “% of control remaining” value is 89.1746. The same measure for `N#CCCN(Cc1ccco1)C(=O)c1cccc(NC(=O)C2CC2)c1` [CBK304014]: 83.0817; for `Cc1ccc2nc(-c3ccc(/N=C/c4ccc(/C=N/c5ccc(-c6nc7ccc(C)cc7s6)cc5)cc4)cc3)sc2c1` [CBK261661]: 102.999; for `CCCC/C=C/c1cnc2[nH]c(=O)n(Cc3ccc(S(N)(=O)=O)cc3)c2n1` [CBK064956]: 61.977. The figure for `CNC(=O)c1ccc(-c2ccccc2OC)nc1N1CCOCC1` [CBK106210] is 100.41; for `O=[N+]([O-])c1ccc(OCCO)cc1` [CBK000628] it is 101.469; for `CC1CN(C(=O)NC(=O)c2ccc(-c3csnn3)cc2)CC(C)O1` (stereo not drawn) [CBK017091] it is 111.581.

Turning to `CCOC(=O)c1cnc2nc(N3CCOCC3)nn2c1N` [CBK007371], the “% of control remaining” value was found to be 0. As to `Cc1ccc(NC(=O)CSc2nc3ccccc3c(=O)n2Cc2ccco2)cc1Cl` [CBK265606], the “% of control remaining” value is recorded as 89.3772. With `Nc1ncnc(NCCCc2ccccc2)c1[N+](=O)[O-]` [CBK267261], the “% of control remaining” value came to 108.424. Consider `CCC(Sc1ccc2nnc(-c3ccc(C)cc3)n2n1)C(=O)O` (stereo not drawn) [CBK287524], for which the “% of control remaining” value amounted to 123.76. The same measure for `Cc1ccc(C(C)C)c(OCc2ccc(C(=O)Nc3ccc(S(N)(=O)=O)cc3C)o2)c1` [CBK265833]: 85.2141. Consider `COc1ccc(O)c(CN(C)CCN(C)C)c1` [CBK261854], for which the “% of control remaining” value is given as 100.204. In the case of `O=C(COc1cccnc1)N1CCCc2ccccc21` [CBK200258], the “% of control remaining” value amounted to 92.4746. Turning to `O=C(NCCn1cccn1)N1CCC(Cc2ccc(F)cc2)CC1` [CBK304381], the “% of control remaining” value worked out at 67.9488.

With `O=c1[nH]c(=O)c2cc(S(=O)(=O)NCC3CCN(Cc4ccccc4)C3)ccc2[nH]1` (stereo not drawn) [CBK286384], the “% of control remaining” value stood at 121.552. For the compound `CC1CC1C(=O)N1CCCC(c2nn(C)c3ncccc23)C1` (stereo not drawn) [CBK282167], the “% of control remaining” value was found to be 91.771. `CCc1nn(CC(=O)N2CCCC2)c(=O)c2cc3occc3n12` [CBK283748]: the “% of control remaining” value is on record as 78.9801. The same measure for `O=c1[nH]c2ncc(-c3cncc4ccccc34)nc2n1CCCO` [CBK064814]: 73.3097. As for `CC(C)(C)OC(=O)N1CCC(Oc2nccnc2OCc2ccc(Cl)cc2F)CC1` [CBK163968], the “% of control remaining” value is 54.6284. Take `O=c1ccc2ccc(-c3ccsc3)nc2[nH]1` [CBK073710]: the “% of control remaining” value is reported as 100.191. With `CNC(=O)C1CCCCN1C(=O)c1cn(CCOC)c2ccccc12` (stereo not drawn) [CBK306308], the “% of control remaining” value is on record as 69.1105.

Take `CCn1nc(NC(=O)C2Cc3ccccc3CN2C)cc1C` (stereo not drawn) [CBK282133]: the “% of control remaining” value was 112.532. Take `CC(=O)Nc1ccc(/N=C/c2ccc(Cl)cc2)cc1` [CBK015166]: the “% of control remaining” value amounted to 73.5521. On to `CCc1c(C(=O)NC2CCCOC2)[nH]c2ccc(F)cc12` (stereo not drawn) [CBK283115], for which the “% of control remaining” value came out at 89.3593.

Turning to `CC(C)[C@H]1CN(Cc2ccco2)CCN1Cc1ccco1` [CBK284271], the “% of control remaining” value amounted to 94.6733. Take `CC(=O)Nc1cccc(CN2CCCC(CO)C2)c1` (stereo not drawn) [CBK305527]: the “% of control remaining” value is listed as 87.3875.

As to `CC1CCC(N(CCCN)Cc2ccco2)CC1C` (stereo not drawn) [CBK268947], the “% of control remaining” value amounted to 94.2404.

As for `CCCS(=O)(=O)NC1CC(C)(C)Cc2c1cnn2-c1ccccc1` (stereo not drawn) [CBK307265], the “% of control remaining” value was 90.5465. The figure for `COCOc1ccc(-c2nccnc2OC)cc1` [CBK106914] is 93.2906; for `CCc1nc2c(Oc3nc4ccccc4s3)cccn2c1N(C)C(=O)C(C)C` [CBK147765] it is 76.4374. Turning to `COc1cc2c(cc1OC)C1=NNC(=O)C1=NC(C)(C)C2` [CBK288353], the “% of control remaining” value was determined as 1.154. On to `O=C(c1cc(S(=O)(=O)N2CCOCC2)ccc1Cl)N1CCCC(CO)C1` (stereo not drawn) [CBK304236], for which the “% of control remaining” value was found to be 68.1114. As to `Cc1c(-c2cc(C(F)F)n3nc(CCC(=O)O)nc3n2)cnn1C` [CBK286888], the “% of control remaining” value is on record as 111.253. Consider `C(=C\c1nccnc1OCCc1c[nH]c2ccccc12)/c1ccccc1` [CBK106872], for which the “% of control remaining” value turned out to be 97.7882. The figure for `CCN(CC)c1ccc(C(=O)CN2CCN(c3nccnc3OCCN3CCOCC3)CC2)cc1` [CBK082898T] is 88.9094; for `CC(=O)c1cccc(NC(=O)N(CCO)C2CCc3ccccc32)c1` (stereo not drawn) [CBK305517] it is 21.2451; for `COc1ccc(Sc2cc(C(F)(F)F)ccn2)cc1OC` [CBK093762] it is 87.6492. `COc1ccc(-c2c[nH]c([C@@H]3COCCN3Cc3cccc(C#N)c3)n2)cc1` [CBK289298]: the “% of control remaining” value is given as 111.929. The figure for `O=C(CN1C(=O)c2ccccc2C1=O)Nc1sc2c(c1C(=O)NCc1ccco1)CCCC2` [CBK265670] is 98.9635; for `Cc1ccc(C(=O)N2CN(C(=O)CN3CCOCC3)CC(C)(C)C2)cc1` [CBK039190] it is 150.823. The same measure for `Cc1cc(C)n(CCNC(=O)c2ncoc2-c2ccc(F)cc2)n1` [CBK282356]: 61.5395; for `Cc1noc(NS(=O)(=O)c2ccc(NC(=O)/C=C/c3ccc(C(C)C)cc3)cc2)c1C` [CBK265430]: 31.9524; for `CC(C)c1nsc(NS(=O)(=O)Cc2ccccc2)n1` [CBK051188]: 79.7694.

`O=[N+]([O-])c1ccc(S(=O)(=O)NCCSCc2cccc(Cl)c2)cc1` [CBK268066]: the “% of control remaining” value is recorded as 104.464. On to `O=C(O)CCC(=O)N1CCCC2(CCN(Cc3ccccc3)C2)C1` (stereo not drawn) [CBK136890], for which the “% of control remaining” value was determined as 101.179. For the compound `Cc1cc2occ(CC(=O)NCc3ccccn3)c2c(C)c1Cl` [CBK269175], the “% of control remaining” value is reported as 94.3141. For `CCc1nc2ccc(C(=O)N3CCN(c4ccccc4)CC3)cn2c1N(C)Cc1ccc(OC)cc1` [CBK145584], the “% of control remaining” value is given as 102.22. For `O=C(COc1ccc(I)cc1)Nc1cccnc1` [CBK263430], the “% of control remaining” value was found to be 105.977. As for `O=C(O)c1cccc(NC(=O)c2cccc(S(=O)(=O)N3CCc4ccccc4C3)c2)c1` [CBK265187], the “% of control remaining” value is 96.0446. In the case of `Cn1cc(CN2C3CCC(C3)[C@@H]2COc2ccc(F)cc2)cn1` (stereo partly drawn) [CBK282257], the “% of control remaining” value was 94.8543. The figure for `O=C(NCc1ccc(Cl)cc1)c1cnc(-c2cccc(C(F)(F)F)c2)c(-c2ccncc2)c1` [CBK037607] is 111.641; for `CCC1(O)C(C)C(c2ccc(Cl)cc2)NC(c2ccc(Cl)cc2)C1C` (stereo not drawn) [CBK025376C] it is 75.9126; for `N#Cc1c(N)nc2c(c1-c1ccc(Cl)cc1)CCCCCCCCCC2` [CBK262322] it is 102.559. With `CN(C(=O)c1cc[nH]n1)C1CCN(c2ncnc3ccccc23)CC1` [CBK305916], the “% of control remaining” value is on record as 82.9094.

Consider `COc1ccc(N2CCN(c3nc(NCCO)nc(N4CCOCC4)n3)CC2)cc1` [CBK265413], for which the “% of control remaining” value was found to be 98.1811. As to `COc1ccc(-c2cc(-c3nnc(S)n3-c3ccccc3Cl)[nH]n2)cc1` [CBK265880], the “% of control remaining” value came out at 89.9903. The same measure for `COc1nc2ccccc2nc1CCC(=O)NC(C)c1ccccc1` (stereo not drawn) [CBK270065]: 88.771.

Take `CCN1CCN(Cc2c(C3CCCC3)[nH]c3ncccc23)CC1` [CBK285386]: the “% of control remaining” value came to 75.6665.
